Here are results for 22 molecules from article PMC12136788.

The list shows a part of the results.

B1: chr7:92086252:92086353:+|CDS|ENSG00000127914|msi1|total|mutant (ssRNA)
RNA: GGGAGUUCUACAGUCCGACGAUCUCAUGAGAGCUUCUCAGACUGGCGAGGUGAACUACUGCUUGCCCUUCAACAAGUUUUCUCCGAAGAGCGCCGUGUUUUACCCGCAGCAUUUCGGACGGAGCUGACAGCUCCCGGUACUACCAACAGAGGAUUGAGCAUCA
B2: chrX:71300841:71300885:+|3pUTR|ENSG00000147140|msi1_unk|total|mutant (ssRNA)
RNA: GGGAGUUCUACAGUCCGACGAUCCCCCAUAUAUUACCCCUUCAUGUCCUAAAGAAGACAUUUUCUCUCCGAGAUUUUCAUUUCCGUGUAUCUUUAAAAAAAAAUCUUGUGUUAACUUGCCUCCAUCUUUUUCUUGGGUGAGGACAACAGAGGAUUGAGCAUCA
B3: chr3:15667380:15667481:-|3pUTR|ENSG00000206560|msi1|FALSE|bound_elsewhere (ssRNA)
RNA: GGGAGUUCUACAGUCCGACGAUCUAUACAUAAAAGAUGACAUCUGAAAUAUCUGAUGUGUAUUAUAAUACCAGCUUCUGCUCUAGAACUACUUUGGGUGAAAUGGUGGUAAUAGCAAAUGACCUCCUUUAACAAGACACUCAUCAACAGAGGAUUGAGCAUCA
B4: chr2:42328916:42329027:+|CDS|ENSG00000143924|unk|total|mutant (ssRNA)
RNA: GGGAGUUCUACAGUCCGACGAUCAGAAGGAUCUGAUGGGACAGAUAUCAAUGCACUGGUGCGAUCCCACAACCGAAAGGUGACCGCUGUUGCCGAUGACUUUUGUAAAGUCCAUCUGUUUCAGUAUCCCUGCUCCAAAGCAAACAACAGAGGAUUGAGCAUCA
B5: chr6:132743869:132744491:-|three_prime_utr|ENSG00000112303|control|control|control (ssRNA)
RNA: GGGAGUUCUACAGUCCGACGAUCAUGUGGGACCAGCAAUUCAGCAAUAACUUACCUGCUAAUAUUCAUAUUAUUAAUGAUCAUAGCUUUGCAAAAUAUUGUAAUGUUAUAGGGCGUCUCUUUAUCACUCAGCUUCUGCAUCAUCAACAGAGGAUUGAGCAUCA
B6: chr5:103029089:103029184:+|3pUTR|ENSG00000145730|msi1_unk|FALSE|overlapping (ssRNA)
RNA: GGGAGUUCUACAGUCCGACGAUCAACCAAGCUUUGAUUUAGAUUGAGUAAGAUUUACCCAGAAUGUCAGAUUCCUUUCCCUUUAGCACGUUUAAAGUUCUGUGUAUUUAAUUGUAAACUGUACUAGUCUGUGUGGGACUGUACCAACAGAGGAUUGAGCAUCA
B7: ENSG00000070961:be:win_1201|CDS|ENSG00000070961|bound_else_gene|NA|bound_elsewhere_windowed (ssRNA)
RNA: GGGAGUUCUACAGUCCGACGAUCAAAAGACCAUGGCUUGCUGAGUGCACACCAAUUUAUAUACAAUACUUUGUGAAGUUCUUCAUUAUUGGAGUUACAGUUUUAGUGGUCGCAGUGCCAGAAGGUCUUCCACUUGCAGUCACGCAACAGAGGAUUGAGCAUCA
B8: chr2:45005181:45006169:-|three_prime_utr|ENSG00000170577|control|control|control (ssRNA)
RNA: GGGAGUUCUACAGUCCGACGAUCCAGGGGCGCCCCGCCCCUGCGGCCCCACCAGGUACUGAAAGACCCGCAGGCUGAGCGGGUAGAACAGCCGGGUAGGGCAGAUAGCUGUCUAUGUUGGUUCUUGUUUGGGAUUUAUUUUCACAACAGAGGAUUGAGCAUCA
B9: chr13:108210595:108210700:-|CDS|ENSG00000174405|unk|FALSE|unique (ssRNA)
RNA: GGGAGUUCUACAGUCCGACGAUCUCAGCACUUGAGCAAAAGUGGCUUAUACGGAUGAUCAUAAAGGAUUUAAAGCUUGGUGUUAGUCAGCAAACUAUCUUUUCUGUUUUUCAUAAUGAUGCUGCUGAGUUGCAUAAUGUCACUCAACAGAGGAUUGAGCAUCA
B10: ENSG00000168556:stop:overlap|stop_codon|ENSG00000168556|stop_codon|NA|stop_codon (ssRNA)
RNA: GGGAGUUCUACAGUCCGACGAUCAUAAUGAGAAAACAAUGGACAAAAGUACUGAAAAGACAAAAAAGGAUAGAAGAUCGAGGUAGUAAAGGCCAUCCACAUUUUAAAGGGUUAUUUGUCUUUUAUAUAAUUCGUUUGCUUUCACAACAGAGGAUUGAGCAUCA
B11: chr12:2849045:2849230:-|three_prime_utr|ENSG00000283297|control|control|control (ssRNA)
RNA: GGGAGUUCUACAGUCCGACGAUCCCCAGAGCCCCAGGCUCCAGUGUUCUCAAUCAAUGCUCCUUCAGCAAGAGGCCCUGGGGUAGCAAAAGGACUCUGGCUUCUGCAGAACAGCCUCUCCACCAUCCUCCCAGCCUCAAGCCACAACAGAGGAUUGAGCAUCA
B12: chr16:46660370:46660459:-|3pUTR|ENSG00000069329|msi1_unk|FALSE|overlapping (ssRNA)
RNA: GGGAGUUCUACAGUCCGACGAUCAAAAGGAAAUAGCUCACCAUACUCCUUUCCAUGUACAUCCAGUGAGGGUUUUAUUACGCUAGGUUUCCCUUCCAUAGAUUGUGCCUUUCAGAAAUGCUGAGGUAGGUUUCCCAUUUCUUACAACAGAGGAUUGAGCAUCA
B13: chr11:95129132:95129233:+|CDS|ENSG00000149218|msi1|total|mutant (ssRNA)
RNA: GGGAGUUCUACAGUCCGACGAUCAAUCCUGAAGAACAUUGUCUAUUUCCUGUGGUGUGUUACCAAGCAGGUGAUUAAUGGCACCGAAAGUUGCCUUUACCGCCUGGGCUCAGCCACCAUCUCAUACUUCAUGGCCAUUGGGGACAACAGAGGAUUGAGCAUCA
B14: chr5:72207927:72208036:+|3pUTR|ENSG00000131711|msi1_unk|total|mutant (ssRNA)
RNA: GGGAGUUCUACAGUCCGACGAUCUUUUUUUUUUUUUUUUUUUGCUAUGGGAUUUAAUGGGAAAAAUAUGUAAAAACUGUCACCCGUCAGCUGGCUCUUUUUCCUAUGAAAUCUAUCAGUACCUUUCUCCAUCCGUUGUUCUCACAACAGAGGAUUGAGCAUCA
B15: chr12:64147824:64147925:+|3pUTR|ENSG00000196935|unk|FALSE|unique (ssRNA)
RNA: GGGAGUUCUACAGUCCGACGAUCCAUCUCUGUGGUGUCUUUGUUCCUUUCCUUUCAUUCAUCACUACUUUCUCCUUGACAGCUAGCUUGCAUUAAAUAAUGUGAAACUUUUACCUUUAAAAUAUUUUUUUAUCUCACUUUCAUCAACAGAGGAUUGAGCAUCA
B16: chrX:40074726:40074839:-|CDS|ENSG00000183337|unk|total|mutant (ssRNA)
RNA: GGGAGUUCUACAGUCCGACGAUCGCGCUGGGCUUGGACAGGCCUGCCAGCGACAAACAGAGCCCUCUCAACAUCAAUGGUGCCCGUUAUCUGCGGCUGCCCUGGGUCAAUCCUUACAUGGAGGGUGCCACGCCAGCCAUCUACCAACAGAGGAUUGAGCAUCA
B17: chrX:48915045:48915146:-|CDS|ENSG00000102096|unk|total|mutant (ssRNA)
RNA: GGGAGUUCUACAGUCCGACGAUCCCAGCACUGCCAUUCCCGUGGAGUUGUCCAUCGUGACAUCAAGGAUGAGAACAUCCUGACCGACCUACGCCGUGGCUGUGCCAAACUCAUUGAUUUUGGUUCUGGUGCCCUGCUUCAUGACAACAGAGGAUUGAGCAUCA
B18: chr2:218264180:218264222:-|3pUTR|ENSG00000127837|msi1_unk|total|mutant (ssRNA)
RNA: GGGAGUUCUACAGUCCGACGAUCUUGAGGUUCCCGUUCUUUCCCUUCCCAAGUCUCUGGGGGUGGAAAGGAGGAAGAGAUACCCGUUAAAGAUUUUAAAAAUGUAAAUAAAAUAUACUUCCCAGAGACAGAGUCUGUGUGGAUCAACAGAGGAUUGAGCAUCA
B19: chr1:156742365:156742464:-|3pUTR|ENSG00000143321|msi1_unk|FALSE|overlapping (ssRNA)
RNA: GGGAGUUCUACAGUCCGACGAUCAUUUCUGAGGUGCACUGGGAGGCUCCCCUUCUAUUUGGGGCUUGAUGACUUUCUUUUUGUAGCUGGGGCUUUGAUGUUCCUUCCAGUGUCAUUUCUCAUCCACAUACCCUGACCUGGCCCCAACAGAGGAUUGAGCAUCA
B20: chr3:121436121:121436275:-|CDS|ENSG00000051341|control|control|control (ssRNA)
RNA: GGGAGUUCUACAGUCCGACGAUCAGUCCAAGGAUCAGCAGCUGAUAUUGUCAAAAUAGCCACAGUUAACAUUCAGAAGCAAUUAGAGACCUUCCACUCAACCUUCAAAUCCCAUGGUCAUCGAGAGGGUAUGCUCCAAAGUGACAACAGAGGAUUGAGCAUCA
B21: chr17:2300308:2300409:-|CDS|ENSG00000070366|unk|FALSE|unique (ssRNA)
RNA: GGGAGUUCUACAGUCCGACGAUCGACCCAGAAAAUAAUCGGGGACAAGAAUCCUUUCCUAGGACUGCUGGACAAGAGGAUCGUAGUCUAAAAAUUAUCAAAAGAACAAAGAAACCCGACCUGCAGAUCUAUCAGCCUGGACGACAACAGAGGAUUGAGCAUCA
B22: chr12:89590234:89590335:-|3pUTR|ENSG00000070961|msi1|FALSE|bound_elsewhere (ssRNA)
RNA: GGGAGUUCUACAGUCCGACGAUCUUUGCCUACAAUUUACCUUGUUAAAUAUUGUAGAUAAAUUGCUAAUACUAAUAGCCAAAUAGAUAACACUAAUGCUUUGUUUAAAAAAACGAAAAAAACAAAACAAAACAAAAAAACAUGCAACAGAGGAUUGAGCAUCA

For this assay, the target named is MSI1 full-length (mouse, UniProt Q61474 1-362). The experiment in a line: nsRBNS (natural sequence RNA bind-n-seq); RBNS binding buffer (assumed for nsRBNS): 25 mM Tris pH 7.5, 150 mM KCl, 3 mM MgCl2, 0.01% Triton X-100, 500 ug/ml BSA, 20 U/ml SUPERase-In, 4 C; UNK is unkempt and MSI1 is Musashi-1; names of the RNAs are library labels; protein concentration not given here; high values mean tight binding.
UniProt Q61474, sequence (Q61474 whole entry): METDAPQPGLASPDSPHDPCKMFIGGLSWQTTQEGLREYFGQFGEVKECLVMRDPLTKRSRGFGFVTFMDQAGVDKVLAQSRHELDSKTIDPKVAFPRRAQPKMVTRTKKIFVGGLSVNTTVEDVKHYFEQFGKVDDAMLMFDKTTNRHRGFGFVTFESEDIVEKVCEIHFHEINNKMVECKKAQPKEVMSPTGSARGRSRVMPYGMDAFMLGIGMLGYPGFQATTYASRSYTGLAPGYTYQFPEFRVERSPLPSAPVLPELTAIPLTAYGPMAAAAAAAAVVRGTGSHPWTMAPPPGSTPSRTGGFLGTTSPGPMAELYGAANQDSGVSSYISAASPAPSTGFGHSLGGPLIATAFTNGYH
The molecule B1 showed a binding signal of 0.292 enrichment R.
Take B2: the binding signal was 0.906 enrichment R.
B3 displayed a binding signal of 0.546 enrichment R.
Then B4, with 0.248 enrichment R; and B5, with 1.18 enrichment R.
B6 yielded a binding signal of 2.15 enrichment R.
Molecule B7 registered a binding signal of 1.51 enrichment R.
For B8, the binding signal worked out at 0.327 enrichment R.
Turning to B9, the binding signal is 0.244 enrichment R.
Take B10: the binding signal is 7.82 enrichment R.
With B11, the binding signal was found to be 0.456 enrichment R.
To B12 belongs 1.15 enrichment R.
As to B13, the binding signal turned out to be 0.277 enrichment R.
B14 gave a binding signal of 2.25 enrichment R.
Then B15, with 7.22 enrichment R; and B16, with 0.345 enrichment R; and B17, with 0.357 enrichment R.
In turn, B18 had a binding signal of 0.654 enrichment R.
As to B19, the binding signal was 0.422 enrichment R.
In turn, B20 returned a binding signal of 1.34 enrichment R.
In the case of B21, the binding signal came to 1 enrichment R.
Then B22, with 1.67 enrichment R.
